Data as given in PubChem BioAssay AID720709 (National Center for Advancing Translational Sciences (NCATS), 2013).
Screen size: about 360,000 compounds; about 520 (0.14%) were called active. This list was built around the results that the source calls inconclusive (neither active nor inactive); the mix of calls is not that of the screen. Calls come from the whole dose curve; as a rule, active = well fitted inhibition curve with a large enough effect; inconclusive = small, poorly fitted or top-dose-only effect; inactive = no such curve, though single readings can be large or run the other way. Potencies of inconclusive entries are left out as doubtful fits.

Target: Rap guanine nucleotide exchange factor 3 (Homo sapiens) (UniProt O95398)
Sequence of UniProt O95398 (O95398 whole entry, looked up): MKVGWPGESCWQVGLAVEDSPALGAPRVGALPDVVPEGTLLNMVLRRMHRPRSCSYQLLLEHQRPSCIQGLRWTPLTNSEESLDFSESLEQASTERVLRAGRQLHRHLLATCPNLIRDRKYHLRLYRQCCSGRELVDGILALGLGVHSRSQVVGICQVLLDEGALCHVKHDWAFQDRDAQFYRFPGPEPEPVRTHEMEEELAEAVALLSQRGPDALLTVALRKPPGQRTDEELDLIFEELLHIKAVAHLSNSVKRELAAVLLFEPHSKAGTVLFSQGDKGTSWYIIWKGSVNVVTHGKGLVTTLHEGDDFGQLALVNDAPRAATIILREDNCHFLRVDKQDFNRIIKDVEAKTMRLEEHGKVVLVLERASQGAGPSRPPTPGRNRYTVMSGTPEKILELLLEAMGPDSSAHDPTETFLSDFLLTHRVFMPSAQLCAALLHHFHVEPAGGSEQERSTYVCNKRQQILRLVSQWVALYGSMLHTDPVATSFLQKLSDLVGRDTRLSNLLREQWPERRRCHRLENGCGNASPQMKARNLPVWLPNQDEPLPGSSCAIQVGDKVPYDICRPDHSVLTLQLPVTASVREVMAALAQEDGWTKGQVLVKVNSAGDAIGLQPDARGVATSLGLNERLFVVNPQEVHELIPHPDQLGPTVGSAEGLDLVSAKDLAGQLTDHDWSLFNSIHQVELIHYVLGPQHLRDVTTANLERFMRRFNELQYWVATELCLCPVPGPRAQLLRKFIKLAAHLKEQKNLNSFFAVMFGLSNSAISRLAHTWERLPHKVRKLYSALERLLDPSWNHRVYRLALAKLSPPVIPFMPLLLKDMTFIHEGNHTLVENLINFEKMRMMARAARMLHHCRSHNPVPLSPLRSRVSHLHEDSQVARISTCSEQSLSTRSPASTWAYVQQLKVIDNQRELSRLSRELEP
Assay: qHTS for Antagonist of cAMP-regulated guanine nucleotide exchange factor 3 (EPAC1): primary screen; note: nearly all actives have a fitted effect of over 50% in size
Conditions: EPAC1 GEF assay, Rap1b-BODIPY-GDP exchange fluorescence; series mostly up to 115 µM
Potency is the fitted concentration of half-maximal effect; tags give direction and shape of the fitted curve.

| SMILES | Potency |
| --- | --- |
| CCN(CC(=O)Nc1ccccc1C(F)(F)F)C(=O)c1cc2c(s1)CCCCC2 | inconclusive [inhibitor, partial curve] |
| Cc1ccc(NC(=O)c2cccc(F)c2)cc1S(=O)(=O)N1CCCCCC1 | inconclusive [inhibitor, full curve, poor fit] |
| COc1ccc(S(=O)(=O)N2CCOCC2)cc1NC(=O)CCc1c[nH]c2ccccc12 | inconclusive [inhibitor, single point] |
| COc1ccc(NC(=O)C2=CC(c3ccc(C)cc3)=NS(=O)(=O)N2C)cc1 | inconclusive [inhibitor, single point] |
| CC(=O)Nc1cccc(-c2ccnc3c2CC(C(=O)Nc2ccc(C(C)C)cc2)O3)c1 (stereo unspecified) | inactive |
| Nc1c(N2CCOCC2)cc(Cl)c2nonc12 | inconclusive [inhibitor, partial curve] |
| O=C(COC(=O)c1c2c(nc3ccccc13)/C(=C\c1ccco1)CC2)NC1CCCC1 | inconclusive [inhibitor, partial curve] |
| COc1ccccc1N1CCN(C(=O)Nc2cccc(C)c2)CC1 | inconclusive [inhibitor, partial curve] |
| COCCN(Cc1cc2cc(C)ccc2n2nnnc12)C(=S)Nc1cccc(C)c1 | inconclusive [inhibitor, single point] |
| COc1cccc(NC(=O)/C=C/c2ccc(S(=O)(=O)N3CCOCC3)cc2)c1 | inconclusive [inhibitor, single point] |
| Cc1cccc(NC(=O)C2(c3cccs3)CCOCC2)c1 | inconclusive [inhibitor, full curve, poor fit] |
| O=C(O)c1ccc(N/N=C/c2cn(Cc3ccc(F)cc3)c3ccccc23)cc1 | inconclusive [inhibitor, partial curve] |
| CCOc1ccc(CNC(=O)Cn2nc(C)c3c(C)n(-c4ccc(C)cc4)nc3c2=O)cc1 | inconclusive [inhibitor, partial curve, poor fit] |
| COc1ccc(OC)c(/C=C2\N=C(c3ccccc3)OC2=O)c1 | inconclusive [inhibitor, single point] |
| CCOc1ncccc1C(=O)OC(C)C(=O)Nc1ccc(Cl)cn1 (stereo unspecified) | inconclusive [inhibitor, full curve, poor fit] |
| C[C@H]1CN([C@@H](C)CO)C(=O)CCCn2cc(nn2)CO[C@@H]1CN(C)S(C)(=O)=O | inconclusive [inhibitor, single point] |
| CC(=O)c1ccc(NC(=O)C2CCN(S(=O)(=O)c3cccs3)CC2)cc1 | inactive |
| Cc1ccc(C(=O)NC(=S)Nc2cc(-c3nc4ccccc4s3)ccc2C)cc1 | inconclusive [inhibitor, single point] |
| COc1cc(C(=O)Nc2ccc3nc(N4CCN(C)CC4)cc(C)c3c2)cc(OC)c1OC | inactive |
| CSc1ccc(NC(=O)CSc2nc3[nH]c(=O)cc(O)c3s2)cc1 | inconclusive [inhibitor, partial curve, poor fit] |
| CC(=O)Nc1ccc(S(=O)(=O)N2CCN=C2SCc2ccc([N+](=O)[O-])cc2)cc1 | inconclusive [inhibitor, full curve, poor fit] |

| SMILES | Potency |
| --- | --- |
| O=C(O)c1cc2c(N3CCC(Cc4ccccc4)CC3)ncnc2s1 | inconclusive [inhibitor, single point] |
| O=C(Nc1ccc(F)cc1)c1cc(S(=O)(=O)Nc2ccc(F)cc2)cs1 | inconclusive [inhibitor, full curve, poor fit] |
| COc1ccc(N(C(=O)C(C)C)S(=O)(=O)c2cccc3cccnc23)cc1 | inconclusive [inhibitor, partial curve] |
| Cc1cc(SCC(=O)N/N=C/c2ccc(O)c(O)c2)c(C)cc1Br | inactive |
| C=C(C)C1CCC(C)=C1COC(=O)Nc1ccccc1 (stereo unspecified) | inconclusive [inhibitor, single point] |
| Nc1sc2c(c1C(=O)NC1CC1)CCCC2 | inactive |
| Cc1ccc2cc(CCNS(=O)(=O)c3ccc(Cl)cc3)c(=O)[nH]c2c1C | inconclusive [inhibitor, partial curve] |
| O=C1N/C(=N\N=C\c2ccco2)SC1Cc1ccccc1[N+](=O)[O-] (stereo unspecified) | inactive |
| COc1ccc(N(C(=O)c2cccnc2)S(=O)(=O)c2ccc(F)cc2)cc1 | inconclusive [inhibitor, single point] |
| CCCc1cc(=O)oc2cc(OCC(=O)Nc3ccc(CN4CCOCC4)cc3)c(Cl)cc12 | inconclusive [inhibitor, single point] |
| O=C(Nc1nc2ccc(SC(F)F)cc2s1)c1ccc(NS(=O)(=O)c2ccc(F)c(F)c2)cc1 | inconclusive [inhibitor, single point] |
| CC(=O)c1ccc(NC(=O)CN2CCN(c3ncccn3)CC2)cc1 | inactive |
| Cc1cc(NS(=O)(=O)c2ccc(NC(=O)/C=C/c3ccccc3Cl)cc2)no1 | inconclusive [inhibitor, single point] |
| O=C(c1ccc2c(c1)OCO2)N1CCN(S(=O)(=O)c2ccc(Cl)cc2)CC1 | inactive |
| Cc1oc(=O)cc(OCc2ccccc2)c1C | inconclusive [inhibitor, single point] |
| Cc1ccc(/C=C/c2ccc(=O)n(Cc3ccc(Cl)cc3Cl)n2)cc1 | inconclusive [inhibitor, partial curve, poor fit] |
| CN1C(=O)C(N=Nc2ccc([N+](=O)[O-])cc2)SC1=S (stereo unspecified) | inconclusive [inhibitor, single point] |
| Cc1cc(-c2sccc2Br)nc(-n2cccc2)n1 | inconclusive [inhibitor, partial curve] |
| CCOc1cc(/C=C\[N+](=O)[O-])ccc1OCC(=O)Nc1ccccc1C | inactive |
| Cc1ccsc1/C=N/NC(=O)c1nnn(-c2nonc2N)c1-c1ccccc1 | inconclusive [inhibitor, full curve, poor fit] |
